Measured values as given in PubChem BioAssay AID686978 (National Center for Advancing Translational Sciences (NCATS), 2013).
Hit rate of the full screen: of about 420,000 compounds, about 64,000 (15%) were called active. This list was built around the results that the source calls inconclusive (neither active nor inactive); the mix of calls is not that of the screen. Calls follow the shape of the dose curve; as a rule, active = well fitted inhibition curve with a large enough effect; inconclusive = small, poorly fitted or top-dose-only effect; inactive = flat fitted curve, though single readings scatter. No potency is given beside an inconclusive call; the fits are too rough.

Assay: qHTS for Inhibitors of human tyrosyl-DNA phosphodiesterase 1 (TDP1): qHTS in cells in absence of CPT; also: nearly all actives have a fitted effect of over 55% in size
Details: DT40 Tdp1-/- hTDP1 cells, no CPT, ATP luminescence, 48 h; activity change, negative = growth inhibition: at 46.2 µM (top of the series) unless noted
In short: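 Seeded 400 DT40-hTDP1 cells/well (vehicle DMSO, no 20 nM CPT); pinned compounds; ≥48 hr at 37 °C; CellTiter-Glo luminescence as viability measure.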
% is scaled to controls: 0 for no effect and ±100 for the full control effect; potency is read from the fitted curve at half-maximal effect; tags tell the direction and shape of the fitted curve.

| Structure (SMILES) | Potency | activity change, negative = growth inhibition |
| --- | --- | --- |
| Cc1cccc(OCC(=O)OC(C)CN2CCCCC2)c1 (configuration not stated) | inactive |  |
| O=C(Nc1ncccc1O)c1cccc(S(=O)(=O)N2CCN(c3ccc(F)cc3)CC2)c1 | inconclusive [inhibitor, partial curve] |  |
| O=C(Nc1cccc(C(=O)O)c1)/C(=C\c1ccc2c(c1)OCO2)NC(=O)c1ccco1 | inactive |  |
| COC(=O)[C@@H](N)CSC/C=C(\C)CC/C=C(\C)CCC=C(C)C | inconclusive [inhibitor, partial curve] |  |
| Brc1ccc(C2Nc3cccc4cccc(c34)N2)s1 | inconclusive [inhibitor, single point] |  |
| COc1cccc(Oc2ccc(S(=O)(=O)N3CCOCC3)cc2[N+](=O)[O-])c1 | inactive |  |
| CC(C)CN(CCNC(=O)CN1N=C(c2ccc(Cl)cc2)CCC1=O)CC(C)C | inactive |  |
| Cc1c(C(=O)NC(=S)Nc2ccc3c4c(cccc24)CC3)cccc1[N+](=O)[O-] | inconclusive [inhibitor, partial curve] |  |
| CCOc1ccc(C2(C)NC(=O)N(CCN(C)C)C2=O)cc1 (configuration not stated) | inactive |  |
| COc1ccc(-c2ccc3c(c2)C2CC3CCN2C(=O)C2CCCCC2)cc1 (configuration not stated) | inconclusive [inhibitor, single point] |  |
| Cc1cccc2sc(N(Cc3cccnc3)C(=O)C3CCCCC3)nc12 | inconclusive [inhibitor, single point] |  |
| O=C(NNC(=O)c1ccccc1-c1ccccc1C(=O)O)c1ccccc1 | inactive |  |
| Cn1cc(CN(CCO)Cc2cccs2)c(-c2cccc(Cl)c2)n1 | inconclusive [inhibitor, partial curve] |  |
| CC(=O)Nc1ccc(NC(=O)CCC(=O)OCC(=O)c2cccc([N+](=O)[O-])c2)cc1 | inconclusive [inhibitor, single point] |  |
| COc1ccc(CSc2nc3ccncc3n2Cc2nc(-c3ccc(OC)c(OC)c3)oc2C)cc1 | inconclusive [inhibitor, single point] |  |
| O=C(Cn1nnc(-c2ccccc2NC(=O)c2ccco2)n1)Nc1ccccc1 | inconclusive [inhibitor, single point] |  |
| CCCCn1c(=O)c(CCC(=O)OCC(=O)NC(=O)NCCC(C)C)nc2ccccc21 | inconclusive [inhibitor, partial curve, poor fit] |  |
| O=C(NCc1ccccc1)c1onc(CSc2ccccc2)c1C(=O)NCc1ccccc1 | inconclusive [inhibitor, single point] |  |
| c1ccc(CSc2nnc3ccc(-c4ccco4)nn23)nc1 | inactive |  |
| Cc1[nH]c2ccc(OCc3ccccc3)cc2c1CCN1C(=O)OC(C)(C)C1(C)O (configuration not stated) | inconclusive [inhibitor, single point] |  |
| CN(C(=O)c1cccc(Nc2ccc(-c3ccc4c(c3)OCCO4)nn2)c1)C1CCCCC1 | active: 23.1 µM |  |
| COc1ccc(NC(=O)CN(C)CC(=O)Nc2cccc3ccccc23)c(OC)c1 | inconclusive [inhibitor, single point] |  |
| O=C(CSc1nc2c([nH]c3ccccc32)c(=O)n1-c1ccc(F)cc1)N1CCCCCC1 | inconclusive [inhibitor, single point] |  |

| Structure (SMILES) | Potency | activity change, negative = growth inhibition |
| --- | --- | --- |
| COc1cc(/C=C2\SC(=S)N(Nc3ncc(C(F)(F)F)cc3Cl)C2=O)ccc1O | inconclusive [inhibitor, partial curve, poor fit] |  |
| COc1cc(C(=O)N/C(=C\c2cn(S(=O)(=O)N(C)C)c3ccccc23)C(=O)N2CCCC2)cc(OC)c1OC | inconclusive [inhibitor, single point] |  |
| COc1ccccc1CNC(=O)Nc1ccc2c(c1)N(C)C(=O)c1ccccc1S2 | inconclusive [inhibitor, single point] |  |
| Cc1noc(C)c1C(=O)N1CCC[C@@]2(CCN(Cc3cc(C(F)(F)F)cc(C(F)(F)F)c3)C2)C1 | inconclusive [inhibitor, single point] |  |
| CSc1ccccc1C(=O)C1CCCN(C(=O)NC(C)C)C1 (configuration not stated) | inactive |  |
| C/C(CC(=O)Nc1ccc2c(c1)OCCO2)=N\NC(=O)Cc1ccc(Cl)cc1 | inactive |  |
| COc1cc(NC(=O)CCc2c(C)nc3c(c(C)nn3-c3ccccc3)c2C)cc(OC)c1OC | active: 11.6 µM |  |
| c1ccc2c(c1)Cn1c-2nc2ccccc21 | inconclusive [inhibitor, single point] |  |
| CCOc1ccc(S(=O)(=O)N2CCC(C(=O)NCc3ccco3)CC2)cc1C |  | inconclusive: -32% [inhibitor] |
| O=C(NCCCN1CCOCC1)c1cc(-c2ccc(Br)cc2)nc2ccccc12 | inconclusive [inhibitor, single point] |  |
| CCc1ccc2c(CN3CCc4ccccc43)cc(=O)oc2c1 | inconclusive [inhibitor, single point] |  |
| Cc1nc2ccccc2n(CC(=O)Nc2cc(Cl)cc(Cl)c2)c1=O | active: 14.6 µM |  |
| Cc1sc2nc(SCC(=O)NCc3ccco3)[nH]c(=O)c2c1C | inconclusive [inhibitor, single point] |  |
| Cc1nc(C)c(-c2nnc(-c3cccc(S(=O)(=O)N(C)C)c3)o2)cc1C(=O)NN | inconclusive [inhibitor, partial curve, poor fit] |  |
| CCN1/C(=C2/SC(=S)N(C)C2=O)C=Cc2cc(C)ccc21 | inactive |  |
| COc1cccc(-c2cc(C(=O)NCCc3ccc(C)cc3)[nH]n2)c1 | inconclusive [inhibitor, single point] |  |
| CC(=O)c1c(C)n(-c2cccc(C)c2)c2ccc(OC(=O)COc3ccccc3)cc12 | inconclusive [inhibitor, partial curve, poor fit] |  |
| O=c1ccc(/C=C/c2ccccc2)nn1Cc1ccc(F)cc1 | inactive |  |
| COc1ccc(CC(=O)N2CCN(c3ccccc3)CC2)cc1OC | inconclusive [inhibitor, single point] |  |
| O=C1NC[C@H](c2ccccc2)OC(=O)[C@H](Cc2ccc(F)cc2)C/C=C\C[C@H]1CC(=O)N(CCO)Cc1ccccc1 | active: 8.2 µM |  |
| Cc1ccc(NS(=O)(=O)c2c(C(=O)N3CCCCCC3)c(C)n(C)c2C)cc1F | inconclusive [inhibitor, single point] |  |
| CCOC(=O)N1CCN(C(=O)CSc2ccc(-c3ccc(OC)cc3)nn2)CC1 | inactive |  |
| Cc1ccc(NC(=O)CN2C(=O)C(=O)N(C3CCCC3)C2=O)cc1Cl | inactive |  |

| Structure (SMILES) | Potency | activity change, negative = growth inhibition |
| --- | --- | --- |
| CC(C)(C)c1nnc(NS(=O)(=O)c2cc(Cl)ccc2Cl)s1 | inactive |  |
| COc1ccc(C(c2c(O)nc[nH]c2=O)c2c(O)nc[nH]c2=O)cc1 | inactive |  |
| NC(c1ccccc1)c1csc(NC(=O)NCCc2ccccc2)n1 (configuration not stated) | inconclusive [inhibitor, single point] |  |
| COc1cccc(/C=C/C(=O)OCC(=O)c2ccc(C)c(C)c2)c1OC | active: 25.9 µM |  |
| CCc1noc(C)c1C(=O)OCC(=O)Nc1nc(-c2ccc(F)c(F)c2)cs1 | active: 14.6 µM |  |
| CCOC(=O)c1c(C)c(C(=O)NCCc2ccc(OC)cc2)c(C)n1CC | inconclusive [inhibitor, single point] |  |
| CC(=O)c1c(N2CCCCC2)nc(=S)n(-c2ccccc2)c1C | active: 5.8 µM |  |
| Cn1c(=O)c2sccc2n2c(CCCC(=O)Nc3ccccc3)nnc12 | inconclusive [inhibitor, single point] |  |
| COC(=O)c1[nH]c2cc(OC)ccc2c1NC(=O)CCN1CCN(c2ccccc2)CC1 | inconclusive [inhibitor, single point] |  |
| COc1ccc(Br)cc1/C=C\C(=O)NCc1cccnc1 |  | inconclusive: -32.7% [inhibitor] |
| CCCCCCC(=O)N1CCCC(c2nc(-c3cccc(OC)c3)no2)C1 (configuration not stated) | inconclusive [inhibitor, single point] |  |
| COc1ccc(NS(=O)(=O)c2ccc(C(=O)N(C)Cc3cccs3)cc2)cc1 | inconclusive [inhibitor, partial curve] |  |
| Cc1cc(O)cc2c1C1CCC3(C)C(=O)CCC3C1C=C2 (configuration not stated) | inconclusive [inhibitor, single point] |  |
| COc1ccccc1-c1cc(NC=O)c2ncc(-c3cccc(C(=O)N(C)C)c3)n2c1 | inconclusive [inhibitor, single point] |  |
| O=C1CCCN1CN(C(=O)c1ccc2c(c1)OCO2)c1cccc(Cl)c1 | inconclusive [inhibitor, partial curve] |  |
| CN1CCN(C(=O)c2cc3c(c(-c4cccc(Br)c4)n2)[C@@H](CCO)N(S(=O)C(C)(C)C)C3)CC1 (some centres not stated) | inactive |  |
| COc1ccc(/C=C/C(=O)c2cc(Cl)ccc2O)c(OC)c1 | inconclusive [inhibitor, partial curve, poor fit] |  |
| OC(c1cccc(Cl)c1)c1nc(-c2ccc3c(c2)OCO3)cs1 (configuration not stated) | inconclusive [inhibitor, single point] |  |
| COc1cccc(CC(NC(C)=O)C(=O)NC2CCN(c3c(Cc4ccccc4)c(C)nc4ncnn34)CC2)c1OC (configuration not stated) | inconclusive [inhibitor, single point] |  |
| CC(=O)c1ccc(NC(=O)CSc2nc(-c3ccccc3F)nc3c2c(=O)n(C)c(=O)n3C)cc1 | inconclusive [inhibitor, full curve] |  |
| Cc1ccc(C(c2sc3nc(-c4ccco4)nn3c2O)N2CCCCC2)cc1 (configuration not stated) | inactive |  |
